Results published in PubChem BioAssay AID1963576 (National Center for Advancing Translational Sciences (NCATS), 2024).
Out of some 46,000 compounds screened, about 60 (0.1%) were called active. Another 3% or so got no clear call; they are omitted. Calls follow the shape of the dose curve; as a rule, active = well fitted inhibition curve with a large enough effect; inconclusive = small, poorly fitted or top-dose-only effect; inactive = no such curve, though single readings can be large or run the other way. The list shows a part of the results.

test: Primary qHTS assay for Inhibitors of ovarian cancer metastasis using an organotypic tumor microenvironment (TME) model.; also: nearly all actives have a fitted effect of over 65% in size;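 as to activity change, negative = inhibition: plate controls were DMSO wells for no effect and tomatine positive control wells for full effect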; details: SKOV3ip1-GFP adhesion/invasion on 3D omental model, fluorescence; series mostly up to 45.8 µM; activity change, negative = inhibition: at the top concentration
In short: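 Primary human omental fibroblast/mesothelial 3D culture pre-formed 48 h. SKOV3ip1-GFP cells added with compounds (0.36-46 umol/L), incubated 2 h RT/16 h 37 C, fixed; GFP cells quantified at 488/509 nm.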

Activity change, negative = inhibition, inactive:
COc1cc(OC)cc(-c2ccc3ncc4ccc(=O)n(-c5ccc(N6CCNCC6)c(C(F)(F)F)c5)c4c3c2)c1 7.25%
CCN1C(C(=O)c2ccccc2)=C(NC(=O)c2ccc(Cl)cc2)c2ccccc2S1(=O)=O -5.86%
CCOC(=O)c1ccc(NC(=O)c2sc3nc4n(c(=O)c3c2C)CCC4)cc1 4.87%
Cc1cccc(C)c1NC(=O)c1cc(S(=O)(=O)N2CCCc3ccccc32)ccc1F 0.637%
COc1cccc(C(=O)NCCc2sc(-c3cccc(C)c3)nc2C)c1 8.01%
CC(=O)N1CCCc2cc(S(=O)(=O)Nc3ccc(OC(F)(F)F)cc3)ccc21 -0.459%
Cc1ccc(C)c(S(=O)(=O)c2cn(Cc3ccccc3)c3cc(N4CCCC4)c(F)cc3c2=O)c1 2.15%
CCOc1ccc(NC(=O)Cn2c(=O)n(CC(=O)NCCc3ccccc3)c(=O)c3sccc32)cc1 -21.7%
CC(C)c1ccc(NC(=O)C(Cc2ccccc2)n2cccc2)cc1 (stereo not given) -7.52%
CC(=O)Nc1nonc1-c1nnc(SCC(=O)Nc2c(C)cccc2C)n1-c1ccccc1 22.7%
COc1ccc2c(CNCCc3ccco3)c(C(=O)O)n(Cc3ccc(F)cc3)c2c1 15%
COc1cccc(NC(=O)c2oc3ccccc3c2NC(=O)c2ccc(OC(C)C)cc2)c1 -14.2%
Cc1ccc(-n2[nH]c(C)c(N=Nc3cccc(-c4cccc(C(=O)O)c4)c3O)c2=O)cc1C -7.52%
CN(C)c1ccc(NC(=O)CC(NCc2cccnc2)C(=O)O)cc1 (stereo not given) -10.6%
Cc1ccccc1NC(=O)c1sc2nc3n(c(=O)c2c1C)N=C(c1ccccc1)CS3 -9.31%
COc1ccc2nc(N3CCN(C(=O)CS(=O)(=O)c4ccc(C)cc4)CC3)sc2c1 -0.57%
COc1ccc(OC)c(N(C)S(=O)(=O)c2ccc3c(c2)NC(=O)CC(=O)N3)c1 2.2%
Cc1ccc(-c2cnc(C3CC3)o2)cc1S(=O)(=O)Nc1ccc(F)cc1Cl -4.46%
COc1cccc(CNc2sc3c(c2C(=O)Nc2ccc(OC)cc2OC)CCC3)c1 3.19%
Cc1ccc(NC(=O)CCCn2c(=O)c3cccn3c3cccnc32)c(C)c1 0.733%
COc1ccc(-n2ccn3c(CC(C)(C)CC(=O)O)nnc3c2=O)cc1 -18.2%
Cc1cccc(N2CCN(c3ccc4cc(S(=O)(=O)N5CCC(C)CC5)ccc4n3)CC2C)c1 (stereo not given) -0.471%
CC(=O)c1ccc(NC(=O)CSc2nccn2C2CCCC2)cc1 -5.88%
CC(C)CNC(=O)C(=O)Nc1c2c(nn1-c1ccc(Cl)cc1)CSC2 -26.7%
O=C(O)C(=O)Nc1cccc(C2=NN=N[N]2)c1 -6.27%
Cc1nn(-c2cccc(Cl)c2)c2nc(-c3cccnc3)cc(C(F)(F)F)c12 4.34%
CC1CCN(S(=O)(=O)c2ccc3nc(Nc4cccc(F)c4)ccc3c2)CC1 -20.9%
C[C@@H]1C(=O)O[C@H]2CC34[C@H]5C[C@@H](C(C)(C)C)C36[C@H](OC(=O)[C@@H]6O)O[C@@]4(C(=O)O5)[C@]21O (stereo not given in full) 8.26%
CC(C)CC(=O)Nc1cccc(-c2cn3cccnc3n2)c1 -2.9%
COc1ccc(CNC(=O)c2cc3cccc4c3n2CC(C)S4)cc1 (stereo not given) 11.1%
CCOc1ccc(NC(=O)CSc2nc3ccccc3nc2N2CCOCC2)cc1 -20.6%
O=c1c(N2CCN(c3ccc(F)cc3)CC2)csc2ccc(F)cc12 1.35%
COc1ccc(S(=O)(=O)NC(C)(C)CO)cc1-c1nnc2c3ccccc3c(C)nn12 -1.94%
COc1ccc(-c2cc(C(F)(F)F)nc(SCCC(=O)Nc3ccc(F)cc3F)n2)cc1 11%
CC(=O)c1ccc(NC(=O)CSc2nnc3c(n2)[nH]c2ccccc23)cc1 3.55%
CCOC(=O)c1ccc(N2C(=O)c3n[nH]c(-c4cccs4)c3C2c2cccc(O)c2)cc1 (stereo not given) 12.9%
Clc1ccc(-c2nc3ncccn3c2Nc2ccc3c(c2)OCCO3)cc1 0.79%
O=C(CCC1N=C2c3ccccc3N=C(SCc3ccc(F)cc3)N2C1=O)N1CCN(c2ccccc2)CC1 (stereo not given) 6.52%
N#Cc1c(-n2ncnc2-c2ccccc2Cl)sc2c1CCCCC2 2.95%
COc1ccc(N(C)C(=O)c2oc(=O)c3ccccc3c2-c2ccc(C)cc2)c(OC)c1 -4.95%
CC1=C(C(=O)Nc2cccc(F)c2)C2(CCCCC2)OC1=O 1.63%
Cc1cccc(Nc2cc(C)nc3nc(-c4ccccc4)nn23)c1 -3.28%
CCOC(=O)C1CCN(C(c2ccc(C)cc2)c2sc3nc(-c4ccco4)nn3c2O)CC1 (stereo not given) 0.323%
CC(C)c1ccc(CNC(=O)c2ccc(N3CCCC3)c(NC(=O)NCc3ccc(F)cc3)c2)cc1 1.3%
COC(=O)c1c(SCC(=O)Nc2ccccc2C(F)(F)F)[nH]c2ccc(Cl)cc2c1=O 4.92%
Cc1ccc(CNC(=O)CCc2c(C)c3cc4c(C)coc4cc3oc2=O)cc1 -7.5%
COc1ccccc1C(=O)Nc1ccccc1C(=O)OCc1cc(=O)n2ccsc2n1 -1.74%

outcome, inactive:
Cc1ccc(-n2ccn(CC(=O)c3ccc(F)cc3)c(=O)c2=O)cc1C
Cc1ccc2c(CC(=O)Nc3c(C(=O)c4ccc(F)cc4)oc4ccccc34)coc2c1C
CCn1cc(C(=O)NCc2ccc(Cl)cc2)c(=O)c2cc(S(=O)(=O)N3CCc4ccccc4C3)ccc21
CCOC(=O)c1ccc(N2C(=O)c3[nH]nc(-c4ccccc4)c3C2c2ccc(C(C)C)cc2)cc1 (stereo not given)
COc1ccc(C)cc1NC1(c2ccccc2)C(=O)c2ccccc2C1=O
O=c1c(-c2cc(-c3ccccc3)nc3c2COc2ccc(Cl)cc2-3)coc2ccccc12
CCCn1c(=O)c2sccc2n2c(CCCC(=O)N3CCN(c4ccc(OC)cc4)CC3)nnc12
CCOCCCNC(=O)CN1C(=O)COc2ccc(S(=O)(=O)N3CCOCC3)cc21
O=C(Nc1ccc(F)cc1F)c1ccc(-n2cnc3cccnc32)cc1
O=C(CSc1ccc2nc(-c3ccccc3)cn2n1)Nc1ccccc1
CCOc1ccc(/C=C(\C#N)C(=O)Nc2sc3c(c2C(=O)OC)CCC3)cc1OC
CCCOc1ccc(CNC(=O)CCCN2C(=O)CSc3c2c(C)nn3-c2ccccc2)cc1
CCOC(=O)c1sc(NC(=O)c2nc3nc(C)cc(C(F)F)n3n2)c(C(=O)OC(C)C)c1C
